# Counter-ions that a name gives are not always drawn. This is one part of the list. The data scatter; read single values as rough.
# Key:
# Assay in all cases: ALDHbr (CSC) cell proportion score relative to DMSO vehicle (ratio to DMSO); breast (SUM159) / gastric (MKN45) / pancreatic (PANC1) / colon cancer lines; ALDHbr cells have high ALDH activity and are rich in cancer stem cells (CSC); higher = more CSC (ALDHbr) cells remaining
# Details in all cases: 10 µM; 72 h
# MKN45 = test system: MKN45
# PANC1 = test system: PANC1
# SUM159 = test system: SUM159
# T84 = test system: T84
# 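Further: High-content imaging of ALDEFLUOR-stained cells with Hoechst-labelled nuclei in 384-well plates, triplicate wells, scored as Z-score against 0.1% DMSO vehicle, negative meaning fewer ALDHbr cells.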
SMILES,ALDHbr (MKN45),ALDHbr (PANC1),ALDHbr (SUM159),ALDHbr (T84)
CC(C)(Sc1cc(C(C)(C)C)c(O)c(C(C)(C)C)c1)Sc1cc(C(C)(C)C)c(O)c(C(C)(C)C)c1 [Probucol],1.12,1.1,1.18,1.04
Cn1c(=O)c2c(ncn2C)n(C)c1=O [Caffeine],1.06,1.04,0.945,1.06
CN1CCN(CC(=O)N2c3ccccc3C(=O)Nc3cccnc32)CC1 [Pirenzepine dihydrochloride],0.791,0.993,0.862,1.09
CC(=O)Oc1cccc2c1C(=O)c1c(OC(C)=O)cc(C(=O)O)cc1C2=O [Diacerein],0.893,0.918,0.986,0.823
C[C@H]1COc2c(N3CCN(C)CC3)c(F)cc3c(=O)c(C(=O)O)cn1c23 [Levofloxacin],0.956,0.941,0.984,0.866
O=C(c1ccc(F)cc1)C1CCN(CCn2c(=O)[nH]c3ccccc3c2=O)CC1 [Ketanserin tartrate hydrate],1.02,0.653,1.16,0.999
CCC1=C(C)CN(C(=O)NCCc2ccc(S(=O)(=O)NC(=O)N[C@H]3CC[C@H](C)CC3)cc2)C1=O [Glimepiride],0.814,0.648,0.942,0.938
COC(=O)CCc1ccc(OCC(O)CNC(C)C)cc1 (stereo unspecified) [Esmolol hydrochloride],0.966,0.846,1.24,0.875
CC(C)NCC(O)COc1cccc2[nH]ccc12 (stereo unspecified) [Pindolol],0.982,0.87,1.37,0.885
CC(=O)Nc1c(I)c(C(=O)N[C@H]2C(O)O[C@H](CO)[C@@H](O)[C@@H]2O)c(I)c(N(C)C(C)=O)c1I (stereo partly specified) [Metrizamide],1.11,1.01,0.933,0.96
CC(=O)N(CC(O)CO)c1c(I)c(C(=O)NCC(O)CO)c(I)c(C(=O)NCC(O)CO)c1I (stereo unspecified) [Iohexol],1.01,0.873,0.966,1.12
C[C@@H]1CN(c2c(F)c(N)c3c(=O)c(C(=O)O)cn(C4CC4)c3c2F)C[C@H](C)N1 [Sparfloxacin],1.07,0.834,0.773,0.939
CC(=O)NCCCS(=O)(=O)O [Acamprosate calcium],0.958,1,1.13,0.926
CCN(CC)CCOC(=O)C(Cc1cccc2ccccc12)CC1CCCO1 (stereo unspecified) [Nafronyl oxalate],1.13,0.918,0.805,0.946
Cc1cc(NC(=O)C2=C(O)c3ccccc3S(=O)(=O)N2C)no1 [Isoxicam],0.995,0.949,1.17,0.964
CN(C)c1cc(NC(=O)CNC(C)(C)C)c(O)c2c1C[C@H]1C[C@H]3[C@H](N(C)C)C(=O)C(C(N)=O)=C(O)[C@@]3(O)C(=O)C1=C2O [Tigecycline],0.793,0.619,0.943,0.961
CCc1ccc(CCOc2ccc(CC3SC(=O)NC3=O)cc2)nc1 (stereo unspecified) [Pioglitazone],0.819,0.595,0.778,0.662
CCOC(=O)c1ccc(OC(=O)CCCCCNC(=N)N)cc1 [Gabexate mesilate],0.899,0.966,0.874,0.994
CN1CCN(C(c2ccccc2)c2ccccc2)CC1 [Cyclizine hydrochloride],1.07,0.971,0.844,0.96
C[C@]12CCC(=O)C=C1C=C[C@@H]1[C@@H]2CC[C@@]2(C)[C@H]1CC[C@@]21CCC(=O)O1 [Canrenone],0.842,0.837,1.48,0.993
C[C@@H](c1ncncc1F)[C@](O)(Cn1cncn1)c1ccc(F)cc1F [Voriconazole],1.06,0.891,1.04,0.985
"c1ccc(CNc2ncnc3nc[nH]c23)cc1 [Aminopurine, 6-benzyl]",0.947,0.743,0.874,0.842
Nc1nc(=O)c2c([nH]1)NC[C@@H](CNc1ccc(C(=O)N[C@@H](CCC(=O)O)C(=O)O)cc1)N2C=O [Folinic acid calcium salt],1.05,0.914,0.967,0.94
CC(=O)N(CC(O)CN(C(C)=O)c1c(I)c(C(=O)NCC(O)CO)c(I)c(C(=O)NCC(O)CO)c1I)c1c(I)c(C(=O)NCC(O)CO)c(I)c(C(=O)NCC(O)CO)c1I (stereo unspecified) [Iodixanol],0.934,0.941,1.02,0.914
